Source: PMC12136788
This is one part of the list.

B1: chr12:88196262:88196297:+|3pUTR|ENSG00000139324|msi1_unk|total|mutant (ssRNA)
RNA: GGGAGUUCUACAGUCCGACGAUCUGUAUACUUGUUUUUAACUUUAAAUGUAAUUUUUAAUCAGGUAAAGUUUGACACAUGUACCGCUACAUACACACAUUUUUAAUGGUGCUCAUAUAUACUGUAUUUUUUGUUGUUCCGUUUCAACAGAGGAUUGAGCAUCA
B2: chr4:159352722:159352837:+|CDS|ENSG00000109756|unk|total|mutant (ssRNA)
RNA: GGGAGUUCUACAGUCCGACGAUCACUGUGGAUAAUUUUUCAGAUUCUGGUCACAGUGAAAUUUCUUCACGAUCCAGUAUUGUCCGCAAUUCGUCUUUUGACUCAGUGCCAGUCUCACUGCACGAUGAGAGGCGCCAGAGGCAUCAACAGAGGAUUGAGCAUCA
B3: chrX:152971868:152971969:+|3pUTR|ENSG00000147394|unk|total|mutant (ssRNA)
RNA: GGGAGUUCUACAGUCCGACGAUCUUCCCUUACAGGUAUGUUGGCAUGUGUUGGAAAAUUUACACAAUCCGGUUUAAAUUCAGCCGGAUGUGAUUUCCGGAUGCUACUGAUCAAAGUGAUAUCUGUGUCUGUUGGAAUCUUGAUCAACAGAGGAUUGAGCAUCA
B4: chr15:44524374:44524475:+|3pUTR|ENSG00000137770|msi1|total|mutant (ssRNA)
RNA: GGGAGUUCUACAGUCCGACGAUCUAUCUAUCUCAGAUCGAAUACAUACCGCCGGCCGGCUAAAACAGAAGAGUCUUCCGAACCCGUGCAACUCCAGUGAAAUUUUUUAUGUACAGGACAUCUGCAGUUUAUAAAGAAUUCUGUCAACAGAGGAUUGAGCAUCA
B5: chr10:102404582:102404727:-|CDS|ENSG00000059915|control|control|control (ssRNA)
RNA: GGGAGUUCUACAGUCCGACGAUCAUCACUCGCAUCAAUGUAGUAGCCGCUAUGUUCUCUGCGCCCCCCUUCCCAGCUGCUGUUAGCUCCCAAAAGAAGUUCAGCCGCCCUCUCCUGCCCAGCGCUGCCACCCGCCUCUCCCAGCAACAGAGGAUUGAGCAUCA
B6: chr1:178479239:178479534:-|three_prime_utr|ENSG00000188585|control|control|control (ssRNA)
RNA: GGGAGUUCUACAGUCCGACGAUCCAGUUUCUGUUUCAUGCAAUCUUCUCUGGAUUUUGAGUAAAUUUUAAUUUUUUAAUCCCUAGUAGAACAAGAUUAGGAAGAACUCGACAUGUGCCAAAAAGCACAGACCUACAACUAACACAACAGAGGAUUGAGCAUCA
B7: chr11:65967286:65967395:+|CDS|ENSG00000175467|unk|total|mutant (ssRNA)
RNA: GGGAGUUCUACAGUCCGACGAUCGACCUUUAAAAAGACCAAGCGGAGGGUGAAGAAAAUCCGCAAGAAGGAGAAGGAGGCCGCCGUGCGGGCAGAUGACUUGCUGCCUCUCGGGGACCAGACUCAGGAUGGGGACUUUGGUUCCAACAGAGGAUUGAGCAUCA
B8: chr14:103503186:103503248:+|CDS_3pUTR|ENSG00000075413|msi1_unk|FALSE|overlapping (ssRNA)
RNA: GGGAGUUCUACAGUCCGACGAUCUGCUUCCAAAAUUGCCAAUGAGCUAAAGCUGUAACCCAGUGAUUAUGAUGUAAAUUAAGUAGCAAUUAAAGUGUUUUCCUGAACACUGAUGGAAAUGUAUAGAAUAAUAUUUAGGCAAUACAACAGAGGAUUGAGCAUCA
B9: ENSG00000109133:stop:overlap|stop_codon|ENSG00000109133|stop_codon|NA|stop_codon (ssRNA)
RNA: GGGAGUUCUACAGUCCGACGAUCUGAGAAGACUUUGUCUCCAGAGCAUUGCCUUUAUAAGCAGAUUGGCACCAACAGUUCCAUAGUUUAACAUCUAGUUAAGCUACAAAUAUAGUAUAAGCAUUAUUAGCAGCUGGUACUUCUCAACAGAGGAUUGAGCAUCA
B10: chr19:19296988:19297344:-|CDS|ENSG00000105705|control|control|control (ssRNA)
RNA: GGGAGUUCUACAGUCCGACGAUCCUCCGCAGCCACCGUGAAGAGGAAGCGGAAGAGCCGGUGGGGGCCUGAAGAGGAUAAGGUAGAGCUCCCACCUGCUGAACUGGUGCAGAGGGACGUGGAUGCCUCUCCCUCGCCUCUGUCCAACAGAGGAUUGAGCAUCA
B11: chr1:25831912:25832087:-|three_prime_utr|ENSG00000127423|control|control|control (ssRNA)
RNA: GGGAGUUCUACAGUCCGACGAUCGACUGAGUUUGCAGAGCUGAGGGUUGUCAAUUUCCUUUUCUACUGAUAUCUUCUUCCUUUAGAGCAAACUUCCUCCUUAGGACCUCAGAGAUAAGCACAGCAGGGUCUUCCUCCUUCAAUCAACAGAGGAUUGAGCAUCA
B12: chr17:39471515:39471616:+|CDS|ENSG00000167258|unk|total|mutant (ssRNA)
RNA: GGGAGUUCUACAGUCCGACGAUCUUGCCUCCAAUACCAGCUCUUCCACAGCAACCACCUCUGCCUCCUUCUCAGCCAGCAUUCCGUCAGGUUCCUGCUUCCAGUACUUCAACUUUGCCCCCUUCUACUCACUCAAAGACAUCUCAACAGAGGAUUGAGCAUCA
B13: chr17:68278117:68278284:-|CDS|ENSG00000108932|unk|total|mutant (ssRNA)
RNA: GGGAGUUCUACAGUCCGACGAUCGCUUUGUUCCAAAGCCAAUGUGUAUACUGAAGUGCCUGAUGGAGGAUGGGGCUGGGCGGCCGCUGUUUCAUUUUUCUUCGUUGAAGUCUUCACCUACGGCAUCAUCAAGACAUUUGGUGUCAACAGAGGAUUGAGCAUCA
B14: chrX:152166439:152166540:-|3pUTR|ENSG00000011677|unk|total|mutant (ssRNA)
RNA: GGGAGUUCUACAGUCCGACGAUCCACCACAAGCAGAUUCUCCCUGCCCACCGGCUGAACAAAGCUCCUAAGGGGUGUAUCAUCCGCUGCUGGUUGCCUUUUCAUCCAUCCUUUCCCCGUCCCCUGCUUCCUUGCCAUUGCUGGCAACAGAGGAUUGAGCAUCA
B15: chr5:138934237:138934351:+|3pUTR|ENSG00000044115|msi1_unk|total|mutant (ssRNA)
RNA: GGGAGUUCUACAGUCCGACGAUCUUUCCAAGAACACCGUUUAAGUUGAUUAAAAAUGCUUUCCGAAUGCAGGAGCCUACUUCCCGCUGUAUUUUUUGUAUGCUUAAAUAAAAAUAAAAAUUCAUAACCAAAGAGAAUCCCACACAACAGAGGAUUGAGCAUCA
B16: chr4:57023444:57023561:+|CDS|ENSG00000047315|unk|FALSE|unique (ssRNA)
RNA: GGGAGUUCUACAGUCCGACGAUCGAAUUGGAGAGCACCAAUAGACGCUAUACCAAGAGAGACUGUAGCACUUUUCUCAGAACUAGCGAGACGGGCAUUGUGGAUCAGGUUAUGGUAACUCUCAAUCAGGAAGGAUAUAAAUUUCAACAGAGGAUUGAGCAUCA
B17: chr17:2060671:2060772:-|3pUTR|ENSG00000070366|unk|total|mutant (ssRNA)
RNA: GGGAGUUCUACAGUCCGACGAUCCCGUGCUCUCGGGUGGCCUCCACCUGCUCCCUCUCUCCUCACUGGCCUUUCUUUCCGUCCCGCUUCCUCUUCAGGAAAUGUCCUGACUCCCCUCAGCUCCCCCUUCACCCCUCCUUGCCCCAACAGAGGAUUGAGCAUCA
B18: chr12:85803847:85803948:-|3pUTR|ENSG00000198774|unk|FALSE|unique (ssRNA)
RNA: GGGAGUUCUACAGUCCGACGAUCCCAAACCCAUGUUCAUUCACUGAGUGAGGUAUAGUGUGGGUUACAGAGAAAAUCAGUCAUAGUGUUAUUUGUUUAUGUCCUAUCUACAAAAGUUGCAAUGAUGGAAUUUGGAACCCUUCUCAACAGAGGAUUGAGCAUCA
B19: chr2:37079119:37079331:-|CDS|ENSG00000008869|control|control|control (ssRNA)
RNA: GGGAGUUCUACAGUCCGACGAUCAGUAGUUCACCUGGACCACCUACACGAAAAUUAUUAGCUAAAAAUCUCGCAGCCCUUUAUAGCAUUGGGGAUACUUUCACAGUUUUUCAGACACUUGAUAAAUGCAAUGACAUUAUCAGACAACAGAGGAUUGAGCAUCA
B20: ENSG00000124205:stop:overlap|stop_codon|ENSG00000124205|stop_codon|NA|stop_codon (ssRNA)
RNA: GGGAGUUCUACAGUCCGACGAUCCCAACAGAGGCCUGUGUCAAAGGAGGUUGAAGUCAAGGACCAACAAAGCAAGCAGGCUUUAGACCUCCACCAUCCAAAGCUCAUGCCCGGCAGUGGACUCGCCCUCGCUCCAUCUACCUGCAACAGAGGAUUGAGCAUCA
B21: chr2:216122066:216122255:+|CDS|ENSG00000079246|unk|FALSE|unique (ssRNA)
RNA: GGGAGUUCUACAGUCCGACGAUCCCAUGGGCCUUCCUUUCCACUAAAAGGAAUUACCGAACAGCAAAAAGAAGGUCUUGAGAUAGUGAAAAUGGUGAUGAUAUCUUUAGAAGGUGAAGAUGGGUUGGAUGAAAUUUAUUCAUUCAACAGAGGAUUGAGCAUCA
B22: chr12:88493871:88493972:-|3pUTR|ENSG00000049130|msi1|FALSE|unique (ssRNA)
RNA: GGGAGUUCUACAGUCCGACGAUCAAGUAUCUUGACCAUAAAAAGUCAUUGCUGUUCUUGUUUCUAAUGUAAAUAGUGUCCAUUAGUAAAAGUGAAAUUCAGUCUUAAGUAGGGUGAAUUGGAUCACCAUUUACACAAGAGAUGCAACAGAGGAUUGAGCAUCA

Target: MSI1 full-length (mouse, UniProt Q61474 1-362)
Chain of UniProt Q61474 (Q61474 whole entry): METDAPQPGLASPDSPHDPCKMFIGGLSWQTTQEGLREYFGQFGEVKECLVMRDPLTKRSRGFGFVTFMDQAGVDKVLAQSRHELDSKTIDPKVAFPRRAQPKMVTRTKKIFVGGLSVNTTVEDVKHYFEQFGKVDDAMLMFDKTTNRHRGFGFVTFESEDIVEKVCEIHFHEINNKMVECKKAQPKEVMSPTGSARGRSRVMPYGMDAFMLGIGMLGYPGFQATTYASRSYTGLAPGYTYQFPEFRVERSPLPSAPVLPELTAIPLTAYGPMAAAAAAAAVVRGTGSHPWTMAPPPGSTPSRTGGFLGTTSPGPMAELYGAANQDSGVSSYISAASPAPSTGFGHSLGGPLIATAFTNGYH
Assay: nsRBNS (natural sequence RNA bind-n-seq); RBNS binding buffer (assumed for nsRBNS): 25 mM Tris pH 7.5, 150 mM KCl, 3 mM MgCl2, 0.01% Triton X-100, 500 ug/ml BSA, 20 U/ml SUPERase-In, 4 C; UNK is unkempt and MSI1 is Musashi-1; names of the RNAs are library labels; protein concentration not given here; high values mean tight binding

Binder	binding signal [enrichment R]
B1	1.34
B2	0.197
B3	0.162
B4	0.475
B5	1.1
B6	0.631
B7	0.583
B8	7.85
B9	0.513
B10	0.431
B11	0.518
B12	1.12
B13	0.432
B14	0.738
B15	0.774
B16	1.28
B17	0.853
B18	0.947
B19	5
B20	0.453
B21	0.411
B22	2.13
